Reference: patent US20250289788A1, “HALOALKYL SULFONANILIDE COMPOUND AND HERBICIDE CONTAINING THE SAME” (SDS BIOTECH K.K., priority 2022, published 2025)
Some results were stated once for a whole list of compounds, not compound by compound. At least one compound was matched to its structure with a doubt left.

Assays:
Assay in all cases: Test Example 1: herbicidal effect test using paddy field flooding treatment
Type in all cases: in vivo
Conditions in all cases: water surface application, 21 days after treatment
[1] = tested on: Monochoria vaginalis (MV)
Ammannia multiflora (AM) = tested on: Ammannia multiflora (AM)
[2] = tested on: Schoenoplectiella juncoides (SJ)
[3] = tested on: Echinochloa crus-galli var. oryzicola (EC)

Measured: herbicidal efficacy (degree (%) of suppression of growth of terrestrial part)

Cn1ncc2c1CCN(Cc1ccccc1NS(=O)(=O)C(F)(F)F)C2=O [Compound 6-12]
≥ 80%: [1]; dose 500 g a.i./ha | Ammannia multiflora (AM); dose 31 g a.i./ha | [2]; dose 31 g a.i./ha | [3]; dose 500 g a.i./ha

Cc1ccc2c(c1)CCN(Cc1ccccc1NS(=O)(=O)C(F)(F)F)C2=O [Compound 3-39]
≥ 80%: [1]; dose 125 g a.i./ha | Ammannia multiflora (AM); dose 63 g a.i./ha | [2]; dose 63 g a.i./ha | [3]; dose 500 g a.i./ha

O=C1c2occc2CCN1Cc1ccccc1NS(=O)(=O)C(F)(F)F [Compound 6-4, N-[2-(N-trifluoromethanesulfonyl)aminobenzyl]-5,6-dihydrofurano[2,3-c]pyrimidin-7(4H)-one]
≥ 80%: [1]; dose 63 g a.i./ha | Ammannia multiflora (AM); dose 16 g a.i./ha | [2]; dose 31 g a.i./ha | [3]; dose 250 g a.i./ha

CC(OC(=O)N(c1ccccc1CN1CCc2c(F)ccc(F)c2C1=O)S(=O)(=O)C(F)(F)F)C(F)F (stereo not drawn) [Compound 3-181]
≥ 80%: [1]; dose 63 g a.i./ha | Ammannia multiflora (AM); dose 16 g a.i./ha | [2]; dose 125 g a.i./ha | [3]; dose 250 g a.i./ha

CCOCC(=O)N(c1ccccc1CN1CCc2c(F)ccc(F)c2C1=O)S(=O)(=O)C(F)(F)F [Compound 3-131]
≥ 80%: [1]; dose 63 g a.i./ha | Ammannia multiflora (AM); dose 16 g a.i./ha | [2]; dose 250 g a.i./ha | [3]; dose 500 g a.i./ha

C=C(C)COC(=O)N(c1ccccc1CN1CCc2c(F)ccc(F)c2C1=O)S(=O)(=O)C(F)(F)F [Compound 3-190]
≥ 80%: [1]; dose 63 g a.i./ha | Ammannia multiflora (AM); dose 16 g a.i./ha | [2]; dose 250 g a.i./ha | [3]; dose 250 g a.i./ha

CCC(=O)N(c1ccccc1CN1CCc2c(F)ccc(F)c2C1=O)S(=O)(=O)C(F)(F)F [Compound 3-98]
≥ 80%: [1]; dose 125 g a.i./ha | Ammannia multiflora (AM); dose 16 g a.i./ha | [2]; dose 125 g a.i./ha | [3]; dose 250 g a.i./ha

C#CCOc1cccc2c1C(=O)N(Cc1ccccc1NS(=O)(=O)C(F)(F)F)C2 [Compound 2-22]
≥ 80%: [1]; dose 31 g a.i./ha | Ammannia multiflora (AM); dose 31 g a.i./ha | [2]; dose 250 g a.i./ha | [3]; dose 500 g a.i./ha

CC(C)SC(=O)N(c1ccccc1CN1CCc2c(F)ccc(F)c2C1=O)S(=O)(=O)C(F)(F)F [Compound 3-241]
≥ 80%: [1]; dose 63 g a.i./ha | Ammannia multiflora (AM); dose 16 g a.i./ha | [2]; dose 63 g a.i./ha | [3]; dose 125 g a.i./ha

CC(C)SC(=O)N(c1ccccc1CN1CCc2ccccc2C1=O)S(=O)(=O)C(F)(F)F [Compound 3-238]
≥ 80%: [1]; dose 125 g a.i./ha | Ammannia multiflora (AM); dose 250 g a.i./ha | [2]; dose 125 g a.i./ha | [3]; dose 250 g a.i./ha

COCC(=O)N(c1ccccc1CN1CCc2c(F)ccc(F)c2C1=O)S(=O)(=O)C(F)(F)F [Compound 3-130]
≥ 80%: [1]; dose 125 g a.i./ha | Ammannia multiflora (AM); dose 16 g a.i./ha | [2]; dose 63 g a.i./ha | [3]; dose 125 g a.i./ha

CCS(=O)(=O)N(c1ccccc1CN1CCc2c(F)ccc(F)c2C1=O)S(=O)(=O)C(F)(F)F [Compound 3-249]
≥ 80%: [1]; dose 63 g a.i./ha | Ammannia multiflora (AM); dose 16 g a.i./ha | [2]; dose 125 g a.i./ha | [3]; dose 500 g a.i./ha

CC1(C(=O)N(c2ccccc2CN2CCc3c(F)ccc(F)c3C2=O)S(=O)(=O)C(F)(F)F)CC1(Cl)Cl (stereo not drawn) [Compound 3-111]
≥ 80%: [1]; dose 63 g a.i./ha | Ammannia multiflora (AM); dose 16 g a.i./ha | [2]; dose 63 g a.i./ha | [3]; dose 500 g a.i./ha

O=C1c2ccccc2CN1Cc1ccccc1NS(=O)(=O)C(F)(F)F [Compound 2-1]
≥ 80%: [1]; dose 63 g a.i./ha | Ammannia multiflora (AM); dose 125 g a.i./ha | [2]; dose 125 g a.i./ha | [3]; dose 500 g a.i./ha

CCOC(=O)N(c1ccccc1CN1CCc2cc(C#N)cc(F)c2C1=O)S(=O)(=O)C(F)(F)F [Compound 3-148]
≥ 80%: [1]; dose 250 g a.i./ha | Ammannia multiflora (AM); dose 31 g a.i./ha | [2]; dose 125 g a.i./ha | [3]; dose 500 g a.i./ha

O=C1c2c(F)ccc(F)c2CCN1Cc1ccccc1N(C(=O)OCC1CCOCC1)S(=O)(=O)C(F)(F)F [Compound 3-223]
≥ 80%: [1]; dose 250 g a.i./ha | Ammannia multiflora (AM); dose 16 g a.i./ha | [2]; dose 125 g a.i./ha | [3]; dose 250 g a.i./ha

C#CCOC(=O)N(c1ccccc1CN1CCc2c(F)ccc(F)c2C1=O)S(=O)(=O)C(F)(F)F [Compound 3-192]
≥ 80%: [1]; dose 125 g a.i./ha | Ammannia multiflora (AM); dose 16 g a.i./ha | [2]; dose 250 g a.i./ha | [3]; dose 250 g a.i./ha

CCSCC(=O)N(c1ccccc1CN1CCc2c(F)ccc(F)c2C1=O)S(=O)(=O)C(F)(F)F [Compound 3-136]
≥ 80%: [1]; dose 31 g a.i./ha | Ammannia multiflora (AM); dose 16 g a.i./ha | [2]; dose 250 g a.i./ha | [3]; dose 500 g a.i./ha

CCOC(=O)N(c1ccc(F)cc1CN1CCc2c(F)ccc(F)c2C1=O)S(=O)(=O)C(F)(F)F [Compound 4-30, N-[2-(N-ethoxycarbonyl-N-trifluoromethanesulfonyl)amino-5-fluoro-benzyl]-5,8-difluoro-3,4-dihydroisoquinolin-1(2H)-one]
≥ 80%: [1]; dose 31 g a.i./ha | Ammannia multiflora (AM); dose 16 g a.i./ha | [2]; dose 125 g a.i./ha | [3]; dose 125 g a.i./ha

O=C1c2c(F)ccc(F)c2CCN1Cc1ccccc1N(C(=O)C1CCC1)S(=O)(=O)C(F)(F)F [Compound 3-112]
≥ 80%: [1]; dose 31 g a.i./ha | Ammannia multiflora (AM); dose 16 g a.i./ha | [2]; dose 63 g a.i./ha | [3]; dose 250 g a.i./ha

COCC(C)OC(=O)N(c1ccccc1CN1CCc2c(F)ccc(F)c2C1=O)S(=O)(=O)C(F)(F)F (stereo not drawn) [Compound 3-229]
≥ 80%: [1]; dose 125 g a.i./ha | Ammannia multiflora (AM); dose 16 g a.i./ha | [2]; dose 63 g a.i./ha | [3]; dose 125 g a.i./ha

O=C1c2c(F)ccc(F)c2CCN1Cc1ccccc1N(C(=O)OCC1CCCO1)S(=O)(=O)C(F)(F)F (stereo not drawn) [Compound 3-220]
≥ 80%: [1]; dose 16 g a.i./ha | Ammannia multiflora (AM); dose 16 g a.i./ha | [2]; dose 125 g a.i./ha | [3]; dose 500 g a.i./ha

O=C1c2c(F)ccc(F)c2CCN1Cc1ccccc1N(C(=O)OC1COC1)S(=O)(=O)C(F)(F)F [Compound 3-198]
≥ 80%: [1]; dose 31 g a.i./ha | Ammannia multiflora (AM); dose 16 g a.i./ha | [2]; dose 500 g a.i./ha | [3]; dose 250 g a.i./ha

O=C1c2c(cccc2C(F)(F)F)CCN1Cc1ccccc1NS(=O)(=O)C(F)(F)F [Compound 3-9]
≥ 80%: [1]; dose 250 g a.i./ha | Ammannia multiflora (AM); dose 125 g a.i./ha | [2]; dose 250 g a.i./ha | [3]; dose 250 g a.i./ha

O=C1c2c(F)ccc(F)c2CCN1Cc1ccccc1N(C(=O)c1ccoc1)S(=O)(=O)C(F)(F)F [Compound 3-124]
≥ 80%: [1]; dose 125 g a.i./ha | Ammannia multiflora (AM); dose 16 g a.i./ha | [2]; dose 31 g a.i./ha | [3]; dose 500 g a.i./ha

C#CC(C)OC(=O)N(c1ccccc1CN1CCc2c(F)ccc(F)c2C1=O)S(=O)(=O)C(F)(F)F (stereo not drawn) [Compound 3-193]
≥ 80%: [1]; dose 125 g a.i./ha | Ammannia multiflora (AM); dose 16 g a.i./ha | [2]; dose 250 g a.i./ha | [3]; dose 125 g a.i./ha

O=C1c2c(F)cccc2CCN1Cc1ccccc1N(C(=O)OCCF)S(=O)(=O)C(F)(F)F [Compound 3-174]
≥ 80%: [1]; dose 63 g a.i./ha | Ammannia multiflora (AM); dose 16 g a.i./ha | [2]; dose 500 g a.i./ha | [3]; dose 500 g a.i./ha
